Laboratory results taken from PubChem BioAssay AID463173 (ICCB-Longwood Screening Facility, Harvard Medical School, 2010).
The campaign covered roughly 52,000 compounds. About 4,300 (8.3%) were called active. No stated cut-off is given here; in the data, active means survival mostly below about 52% (no sharp cut-off); inactive means mostly above about 56%. The list shows a part of the results.

What follows are molecules tested on DeltatarO mutant (assay: S. aureus survival, RN4220 and DeltatarO strains – OD600, teichoic acid synthesis inhibitors, primary screen (AID 463173)). Conditions: S. aureus RN4220 wild type/DeltatarO growth, OD600, 18 h, hits give low values, screened at 18.75 µg/mL (by protocol).

Structure (SMILES)	survival
CC1CCC[S+](c2cc(O)ccc2O)C1 (stereo unspecified)	inactive: 66%
O=C(CN(CCc1ccccc1)S(=O)(=O)c1ccccc1)NCc1ccc(Cl)cc1	inactive: 62%
Cc1ccc(Cl)cc1N1CCN(C(=O)c2cc(S(=O)(=O)N3CCCCCC3)cn2C)CC1	inactive: 76%
Cc1cc(Cl)ccc1Nc1ncnc2onc(C)c12	inactive: 68%
O=C(Nc1ccccc1Cl)C1CCN(c2nc3ccccc3[nH]2)CC1	inactive: 102%
COc1cccc(NC(=O)CSCn2nnc3c(=O)[nH]c(Cc4ccc(F)cc4)nc32)c1	inactive: 61%
Nc1cc(=O)[nH]c(SCC(=O)N(c2ccccc2)c2ccccc2)n1	inactive: 87%
Fc1ccccc1OCc1nc(-c2ccc(-n3cccc3)cc2)no1	inactive: 75%
Oc1c(CN2CCOCC2)cc(CN2CCOCC2)cc1CN1CCOCC1	inactive: 98%
CCOC(=O)c1cc(-c2ccccc2)n(CCC(=O)Nc2ccc(C)cc2Cl)c1C	inactive: 89%
Cc1ccc2c(c1)C(=O)C(=O)N2Cc1ccc(OC(C)C)cc1	inactive: 120%
COc1ccc(CNc2nccs2)cc1OC	inactive: 103%
COc1ccc(OC)c(S(=O)(=O)N2Cc3ccccc3CC2C(=O)Nc2ccc(Cl)cc2)c1 (stereo unspecified)	inactive: 57%
CCOc1ccc(-c2nn(-c3ccccc3)cc2C2NC(=O)NC(C)=C2C(=O)OC(C)C)cc1C (stereo unspecified)	inactive: 64%
Cc1cc(C)cc(NC(=O)CCS(=O)(=O)c2ccc3nc(C)sc3c2)c1	inactive: 50%
O=C1C(c2ccc(F)cc2)N(Cc2ccccc2Cl)C(=O)CN1C1CCCCC1 (stereo unspecified)	inactive: 81%
Cc1ccc(C(=O)N2CCC(N3CCN(Cc4ccc(F)cc4)C(=O)C3=O)CC2)cc1	inactive: 71%
Cc1ccc(-n2nc(CO)c(C(=O)NCCCCc3ccccc3)n2)cc1	inactive: 102%
CC(C)(C)n1nnnc1C(c1ccccn1)N1CCN(c2cccc(C(F)(F)F)c2)CC1 (stereo unspecified)	inactive: 90%
Cc1ccc2c(c1)CC(C)N2S(=O)(=O)c1nnc(NC(=O)c2ccccc2F)s1 (stereo unspecified)	active: 9%
CC(C)c1ccccc1NC(=O)CN(c1ccccc1)S(=O)(=O)N(C)C	inactive: 81%
CCOC(=O)c1ccc(NC(=O)C2CC(=O)N3CCCN=C3S2)cc1 (stereo unspecified)	inactive: 94%
O=C(NCCCN1CCN(c2ccc(F)cc2)CC1)c1sc2ncccc2c1-n1cccc1	active: 37%

Structure (SMILES)	survival
CCOc1ccc(CNC(=O)c2[nH]c3ccccc3c2Sc2ccc(C)cc2)cc1	inactive: 105%
Cc1ccc(C(=O)Nc2nc(-c3nnn(-c4cccc(Cl)c4C)c3C)ns2)cc1C	inactive: 124%
COc1cccc(-c2nc(CS(=O)(=O)CC(=O)NCCc3ccc(OC)c(OC)c3)c(C)o2)c1	inactive: 72%
Cn1c(=O)c2c(n3ncnc13)NC(=O)CC2c1cccc(F)c1 (stereo unspecified)	inactive: 66%
COc1ccc(NS(=O)(=O)c2ccc3c(c2)CC(C)N3C(C)=O)c(OC)c1 (stereo unspecified)	inactive: 77%
CCOC(=O)C1=C(CN2CCN(c3cccc(OC)c3)CC2)NC(=O)NC1c1ccc(OC)cc1 (stereo unspecified)	inactive: 88%
C=Cc1ccc(CSc2nnc(C)n3c2cc2occc23)cc1	active: 42%
COc1ccc(NC(=O)c2oc3c(c2C)-c2nn(Cc4ccccc4Cl)cc2CC3)cc1OC	active: 53%
Cc1ccc(-n2c(=O)c3c(cnn3C)n(CC(=O)Nc3c(C)cccc3C)c2=O)cc1	inactive: 85%
COc1ccc(CNC(=O)c2cc3c(=O)n4cccc(C)c4nc3s2)cc1	inactive: 68%
Cc1ccc(C(=O)O/N=C(/c2nonc2N)N(C)C)cc1	inactive: 107%
CCOC(=O)c1ccc(NC(=O)C(C)N(c2ccc(OCC)cc2)S(C)(=O)=O)cc1 (stereo unspecified)	inactive: 62%
Cc1c(C(=O)Nc2ccc(F)c(F)c2)oc2ccc(S(=O)(=O)N(C)C3CCCCC3)cc12	inactive: 95%
COc1ccc(CCNC(=O)CCCCn2c(=O)c3ccccc3n(Cc3ccc(Cl)cc3)c2=O)cc1OC	inactive: 70%
COc1cccc(CNC(=O)c2oc3ccc4c(c3c2C)C(=O)CC(C)(C)O4)c1OC	inactive: 90%
CCN(CC)CCn1c2c(c(SCC(=O)Nc3cccc(C(F)(F)F)c3)nc1=O)CCC2	inactive: 74%
CCOc1ccc(-c2cn3c(n2)sc2cc(C(=O)NCCCN(CC)CC)ccc23)cc1	active: 15%
Cc1cccc(CNC(=O)Cc2ccc(NC(=O)N3CCCCc4ccccc43)cc2)c1	inactive: 80%
Cc1ccc(N(C)C(=O)Cn2cc(S(=O)(=O)N3CCCC3)c(S(=O)(=O)N3CCCC3)c2)cc1	inactive: 67%
COc1ccc(-c2sccc2C(C)C(=O)O)cc1 (stereo unspecified)	inactive: 99%
Cc1cc(C)cc(C(=O)Nc2ccc(N3CCN(S(C)(=O)=O)CC3)cc2)c1	inactive: 63%
Cc1ccccc1NC(=O)CSc1nc2ccc(NC(=O)c3ccccc3)cc2s1	inactive: 64%
CC(=O)OCc1cnc(C)c2oc(=O)c(C(=O)Nc3ccc(C)cc3Cl)cc12	inactive: 128%

Structure (SMILES)	survival
CCCOC(=O)C(N)c1ccccc1 (stereo unspecified)	inactive: 100%
CC1CCC(Nc2ncnc3onc(-c4ccc(Cl)cc4)c23)CC1 (stereo unspecified)	active: 47%
COc1ccc(-c2coc3c2c(C)cc2oc(=O)c(C)c(C)c23)cc1	inactive: 73%
CC(C)(O)c1cc(=O)sc2nc3ccccc3n12	inactive: 83%
Cc1nnc(NCc2ccco2)s1	inactive: 73%
O=C(CCc1ccccc1)Nc1nccs1	inactive: 95%
CCCn1cnc2c1c(=O)n(C)c(=O)n2C	inactive: 87%
CCCCN1C(=O)CN(C2CCCCCC2)C(=O)C1c1ccc(OC(C)C)c(OC)c1 (stereo unspecified)	inactive: 120%
COc1ccc(C(=O)n2nc(C)cc2C)cc1	inactive: 80%
Cc1cccc(OCC(=O)Nc2ccc3nc(Nc4cccc(C(F)(F)F)c4)cc(C)c3c2)c1	inactive: 101%
COc1ccc(NC(=O)Cn2cnc3ccc(S(=O)(=O)N4CCC(C)CC4)cc3c2=O)cc1Cl	inactive: 115%
Cc1ccc(-n2ccnc(NCCc3ccc(S(N)(=O)=O)cc3)c2=O)c(C)c1	inactive: 102%
CC(=O)Nc1ccc(C2=CSC3=NCCN23)cc1	inactive: 82%
CC(C)(C)OC(=O)N1CCC(c2c(C(=O)NCCN3CCCC3)cnn2-c2ccc(Cl)cc2)CC1	inactive: 75%
CCOc1ccc(NC(=O)Cn2cc(C(=O)c3ccc(F)cc3)c(=O)c3cc4c(cc32)OCCO4)cc1	inactive: 65%
Cc1ccc(-n2ncc(C(=O)N3CCN(Cc4ccccc4)CC3)c2C2CCN(C(=O)OC(C)(C)C)CC2)cc1	inactive: 123%
CC(=O)c1cc(-c2ccccc2)n(CCC(=O)Nc2ccc(C(C)C)cc2)c1C	inactive: 94%
CC(=O)c1cc2c(cc1N/C(=N/S(=O)(=O)c1ccccc1)c1ccc(Cl)cc1)OCO2	active: 0%
COc1ccccc1OCCn1c(C(C)Oc2ccccc2)nc2ccccc21 (stereo unspecified)	inactive: 66%
COc1ccccc1-c1nnc(SCC(N)=O)o1	inactive: 89%
CCN(CC)CCNC(=O)c1ccc(-c2nc(CS(=O)(=O)c3ccc(C)cc3)c(C)o2)cc1	inactive: 84%
CC(C)c1ccc(NC(c2nnc(-c3ccccc3)o2)c2ccc(F)cc2Cl)cc1 (stereo unspecified)	inactive: 84%
Cc1oc(-c2ccc(C(=O)NCc3ccc(F)cc3)cc2)nc1CS(=O)c1ccccc1 (stereo unspecified)	inactive: 86%

Structure (SMILES)	survival
CCOc1ccc(/C=C/c2nc(C#N)c(NC3CCCCC3)o2)cc1	inactive: 65%
Cc1cccc(C(=O)Nc2cc3c(cc2N2CCOCC2)n(C)c(=O)n3C)c1	inactive: 85%
CCOc1ccc(NC(=O)Cn2cc(C(=O)c3ccc(C)cc3)c(=O)c3cc4c(cc32)OCCO4)cc1	inactive: 127%
O=C(O)CC(NS(=O)(=O)c1ccc(Br)s1)c1ccccc1 (stereo unspecified)	inactive: 82%
O=C(NCCCN1CCN(c2ccccc2)CC1)c1nnc(Cc2ccc(F)cc2)o1	inactive: 83%
CCN1C(C(=O)c2ccccc2)=C(OC(=O)COc2ccccc2)c2ccccc2S1(=O)=O	active: 41%
Nc1c(-c2nc(-c3ccccc3)cs2)c2ccccn2c1C(=O)c1ccc2c(c1)OCO2	inactive: 68%
CC1=C(C(=O)Nc2cc(C)ccc2C)C2(CCCCCC2)OC1=O	inactive: 89%
Cc1cc(C)c(S(=O)(=O)N2CCN(Cc3nc4ccc(C)cc4o3)CC2)c(C)c1	inactive: 92%
Cc1onc(-c2ccc(Br)cc2)c1C(=O)Nc1ccc(Br)cc1F	inactive: 86%
CCOC(=O)c1scc(-c2ccc(C)cc2)c1S(=O)(=O)Nc1cccc(CC)c1	inactive: 77%
Cc1cccc(C(=O)Nc2cccnc2)c1	inactive: 102%
NC(CCc1nc2ccccc2[nH]1)C(=O)O (stereo unspecified)	inactive: 77%
COc1ccc(-n2c(SCC(=O)Nc3nnc(C)s3)nc3c([nH]c4ccccc43)c2=O)cc1	inactive: 83%
COc1cccc2sc(N3CCN(C(=O)CS(=O)(=O)c4ccc(Cl)cc4)CC3)nc12	active: -4%
CC(C)N(C(=O)c1cc2c(Cl)nc3ccccc3c2s1)C1CCCCC1	active: 16%
O=C(NCCc1ccccc1)c1c(O)c2cccc3c2n(c1=O)CC3	inactive: 79%
CCC1SC(C)C/C(=N\O)C1C (stereo unspecified)	inactive: 105%
Cc1cc(C)cc(NC(=O)C2CCN(c3cc(C)nc4c(-c5ccc(Cl)cc5)c(C)nn34)CC2)c1	inactive: 86%
Cc1ccc(S(=O)(=O)c2nnn3c2nc(NCc2cccs2)c2sccc23)cc1C	inactive: 32%
COC(=O)C(C)NC(=O)N1CCN(c2nnc(C)c3c(C)n(-c4ccc(Cl)cc4)nc23)CC1 (stereo unspecified)	inactive: 102%
Cc1cccc(CS(=O)(=O)c2ncc(Cl)c(C(=O)Nc3nc4ccc(F)cc4s3)n2)c1	active: -1%
